As usually defined, the % Inhibition is the change of the read-out against control, counted positive when it falls.

Among all 150,000 compounds or so, about 540 (0.36%) showed an effect of 50% or more. The list shows a part of the results.

The test relates to Plasmodium falciparum. Briefly: Primary screen in NF54 nanoGlo assay, in single point, at 2uM, 72h; a lower Z score goes with more inhibition. Format: functional, Erythrocyte. The settings on record: timepoint 72 hour.
In the case of `O=C(NCC[C@H](O)C1CC1)Nc1cccs1`, the “% Inhibition” value was -15% and the Z score turned out to be 2.17.
Regarding `NC(=O)C1(NC(=O)c2cc(-c3ccc(O)cc3)n[nH]2)CCCC1`, the “% Inhibition” value was -7% and the Z score was 1.24.
The like results for `CCCn1nc(COc2ccc(F)cc2)nc1[C@@H](N)Cc1c[nH]cn1` were, in that order, 2% and -0.36.
On the same counts, the results for `O=C(c1ccno1)N1CCC(c2nnc(-c3ccco3)o2)CC1` are -16% and 2.81.
For the molecule `CCOC1CC2(CCN(Cc3ccc4cn[nH]c4c3)C2)C1` (centres undefined), the “% Inhibition” value is recorded as -8% and the Z score amounted to 0.81.
As for `CCNc1ccnc(NCc2ccc3[nH]c(C)c(C)c3c2)n1`, the “% Inhibition” value was -8% and the Z score came to 0.83.
On the same counts, the results for `COc1ccccc1CN1COc2cc3c(cc2C1)OCO3` are 56% and -4.75.
On to `Cc1nccn1-c1ccc(N2CCN(S(=O)(=O)CCOc3ccc(F)cc3)CC2)nn1`, for which the “% Inhibition” value was -19% and the Z score amounted to 3.7.
The like results for `Cn1ccnc1CS(=O)(=O)c1ccccc1` were, in that order, -6% and 0.76.
As to `c1cc(-c2nc(-c3cnccn3)no2)nc(-n2cccn2)c1`, the “% Inhibition” value was 16% and the Z score is -1.86.
Consider `Cc1cnn(CCNC(=O)c2cccn2C2CC2)c1`, for which the “% Inhibition” value is -15% and the Z score was 1.93.
Consider `O=C(C#Cc1ccccc1)NC1CCN(CC2(O)CCCCC2)CC1`, for which the “% Inhibition” value is 2% and the Z score is on record as -0.2.
The like results for `N#CCCN(Cc1csnn1)CC1CC1` were, in that order, -2% and 0.22.
On the same counts, the results for `CC(CNC1CCN(C(C)c2ccncc2)CC1)c1ccccc1` (centres undefined) are 6% and -0.74.
As to `Cc1cnc(CC[C@H]2CCCN2C(=O)CN2CCCC2=O)n1CC1CC1`, the “% Inhibition” value is listed as 27% and the Z score is listed as -3.7.
With `COc1cccc(N2CCN(C(=O)[C@@H]3CCNC3=O)CC2)c1`, the “% Inhibition” value is -7% and the Z score was 0.92.
The like results for `CO[C@@H](C)C(=O)N(CC(F)F)c1cccc(Cl)c1` were, in that order, -10% and 1.37.
On the same counts, the results for `CC(=O)N1C[C@H](NS(=O)(=O)C2CC2)[C@@H](c2ccccc2)C1` are -11% and 1.27.
The like results for `Cc1ncc(S(=O)(=O)NCCc2cccnc2)cc1C#N` were, in that order, 7% and -0.79.
For the molecule `Cc1ccnc(OCC2CCNCC2)c1`, the “% Inhibition” value is -18% and the Z score turned out to be 2.09.
The like results for `Cn1cc(C(=O)N2CC[C@H](c3cccc(Cl)c3)C2)c(=O)[nH]c1=O` were, in that order, 8% and -1.32.
`Cc1ccc2[nH]c(-c3cc4n(n3)CCN(C(=O)N3CCN(C)CC3)C4)nc2c1`: the “% Inhibition” value is recorded as -6% and the Z score is 0.7.
Take `CC(OCC(F)(F)F)C(=O)NC(CNC(=O)OC(C)(C)C)C1CCCC1` (centres undefined): the “% Inhibition” value is given as -6% and the Z score was determined as 1.15.
The like results for `Cc1cc(CN(C)C(=O)[C@H](C)NC(=O)c2ccoc2)no1` were, in that order, -7% and 1.28.
The like results for `Cc1ccc(-n2cc(-c3cn(Cc4ccoc4)nn3)cn2)cc1C` were, in that order, -16% and 2.77.
On the same counts, the results for `CC(=O)N1CCN(C(=O)Nc2nc3ccccc3s2)CC1` are 0% and -0.07.
With `O=C(c1ccc(-c2c[nH]c(C(=O)N3CCOCC3)c2)cc1)N1CCCCCC1`, the “% Inhibition” value is -4% and the Z score is 0.77.
In the case of `O=C(CS(=O)(=O)Cc1ccccc1)Nc1ccc2c(c1)OCO2`, the “% Inhibition” value was -4% and the Z score worked out at 0.74.
On the same counts, the results for `COCc1nc(NCCc2csc(C)c2C)cc([C@H]2C[C@@H](N)C2)n1` are 12% and -1.38.
On the same counts, the results for `C#CC(C)(C)OCC(O)CN1CCCCC1C` (centres undefined) are -15% and 2.01.
On the same counts, the results for `CCN(C(=O)N[C@@H](C)c1csc(C)n1)C1CCCCC1` are -9% and 0.94.
Consider `CN1Cc2ccc(CN(C)C(=O)Cn3ccc(=O)[nH]c3=O)cc2C1`, for which the “% Inhibition” value is listed as -19% and the Z score was found to be 1.77.
The like results for `COc1cc(C2CN(C(=O)c3ccccc3F)CC2C(=O)N2CCCC2)cc(OC)c1OC` (centres undefined) were, in that order, -16% and 2.29.
The like results for `Cc1cc(NC(=O)NCCc2ccc(O)cc2)nn1C` were, in that order, -3% and 0.49.
With `O=C(c1ccc(F)cc1)N1CCN(Cc2nnsc2Cl)CC1`, the “% Inhibition” value is -3% and the Z score came out at 0.35.
For the molecule `CC(=O)N1CCCN(C(=O)N[C@@H](C)c2ccccn2)CC1`, the “% Inhibition” value is listed as -10% and the Z score was determined as 1.28.
Take `Cc1cccc(CNC(=O)N[C@H]2CC[C@H](O)CC2)c1Br`: the “% Inhibition” value turned out to be 29% and the Z score was -3.26.
As to `CC(C)[C@H](C)n1ncc2[nH]c(CC(C)(C)C)nc21`, the “% Inhibition” value came to 2% and the Z score is reported as -0.24.
Regarding `CCn1ncc(NC(=O)N[C@H]2CCOC23CCCC3)c1C(F)(F)F`, the “% Inhibition” value is on record as -11% and the Z score is listed as 1.67.
On the same counts, the results for `Cc1ccc(NC(=O)[C@@H]2CNC[C@H](C(=O)N[C@H]3CC[C@H](O)CC3)C2)cc1` are -5% and 0.8.
With `Cc1cc(C(=O)Nc2ccc(S(=O)(=O)N3CCc4ccccc43)cc2)no1`, the “% Inhibition” value is listed as -6% and the Z score is 1.01.
Regarding `CCc1nn(C)cc1C(=O)NCc1csc(-c2ccco2)n1`, the “% Inhibition” value is given as -3% and the Z score is 0.41.
The like results for `Cc1noc(-c2cccc(F)c2)c1C(=O)N[C@@H](C)CCc1ccccc1` were, in that order, -1% and 0.14.
The like results for `COc1ccc(COCCN2CCC(c3ncco3)CC2)cc1` were, in that order, -8% and 1.42.
Turning to `C=C(C)C[C@H](C)C(=O)NCCc1cn2cccnc2n1`, the “% Inhibition” value is given as -8% and the Z score was found to be 1.51.
On the same counts, the results for `CCn1ccc2c(cc(C(=O)Nc3ccc(C)c(Cl)c3)n2C)c1=O` are 10% and -1.81.
The like results for `CS(=O)(=O)NC1CCCCC1NC(=O)C1CC1c1c(F)cccc1F` (centres undefined) were, in that order, -5% and 0.77.
Regarding `COc1ccc(NC(=O)Cn2nc3n(c2=O)C(=O)N(c2ccccc2)C3)cc1`, the “% Inhibition” value is recorded as -3% and the Z score is 0.62.
The like results for `Cc1nncn1C1CCN(S(=O)(=O)c2ccc(Cl)cc2)CC1` were, in that order, -11% and 1.89.
As for `Nc1cc(C(=O)NCCOc2ccccc2F)n[nH]1`, the “% Inhibition” value is -10% and the Z score was found to be 1.64.
As for `CC1(C)CN(Cc2ccncc2)CC[S@@+]1[O-]`, the “% Inhibition” value is on record as 39% and the Z score is -3.98.
On the same counts, the results for `CCn1ncc(Br)c1C(=O)NCc1cscn1` are -19% and 2.94.
In the case of `Cc1nc(C)c(C)c(N2CCC[C@H](c3cc(O)ncn3)C2)n1`, the “% Inhibition” value is 4% and the Z score is reported as -0.49.
On the same counts, the results for `Cc1c(NCc2ccccn2)cccc1C(=O)N(C)C[C@H]1CCCCN1C` are -10% and 1.36.
The like results for `OC(CN[C@H]1CCO[C@H](c2cccnc2)C1)c1c(F)cccc1F` (some centres undefined) were, in that order, -9% and 1.48.
The like results for `OC1CCN(c2cc(N3CCO[C@H](c4ccc(Cl)cc4)C3)ncn2)CC1` were, in that order, -7% and 0.75.
Regarding `Cc1csc(S(=O)(=O)NC(c2ccc3c(c2)CCO3)[C@H]2C[C@@H](O)C2)c1` (some centres undefined), the “% Inhibition” value worked out at 1% and the Z score was -0.13.
As to `CCOCC(=O)NCC1(CC(C)C)CCC1`, the “% Inhibition” value was 9% and the Z score is recorded as -1.31.
The like results for `Cc1cccc(CN2CCC(n3nccc3NC(=O)c3ccc4c(c3)OCO4)CC2)n1` were, in that order, -13% and 1.78.
The like results for `CCC[C@H](C)c1cc(NC(=O)Cc2ccc(C)nc2)[nH]n1` were, in that order, -9% and 0.96.
As for `CN(C)CCCNC(=O)C1CCN(c2nc3ccc(-c4ccc(F)cc4)nc3s2)CC1`, the “% Inhibition” value is 16% and the Z score was -1.72.
On the same counts, the results for `Cc1oc(C)c(C(=O)N(C)Cc2cnn(C)c2)c1C` are 12% and -1.24.
For `Cc1ccc(CN(CCO)CCN2CCO[C@@H](C)C2)o1`, the “% Inhibition” value was 2% and the Z score is given as -0.37.
The like results for `CCN(CC)[C@H](CNC(=O)c1[nH]c(C)c(C(=O)OC)c1C)Cc1ccccc1` were, in that order, 7% and -1.11.
`CCCCc1ccc(N(C)C(=O)Cn2cn[nH]c2=O)cc1`: the “% Inhibition” value was -5% and the Z score was determined as 0.51.
The like results for `O=C(CN(CC(=O)NCc1ccco1)S(=O)(=O)c1ccc(Br)cc1)NCc1ccco1` were, in that order, -3% and 0.24.
With `COC[C@H]1CN(C)CC12CCN(C(=O)Cc1cccc(Cl)c1)CC2`, the “% Inhibition” value stood at 14% and the Z score is on record as -1.62.
With `O=C(NC1CCOCC1)c1cnc(-c2ccccn2)nc1O`, the “% Inhibition” value is recorded as -5% and the Z score is 0.86.
The like results for `CC(C)O[C@H]1C[C@@H](NC(=O)c2cccc(F)c2F)C1` were, in that order, 1% and -0.08.
The like results for `COc1ccc(F)c(CN2CCC[C@@](O)(CN3CCN(C)C(=O)C3)C2=O)c1` were, in that order, -1% and 0.14.
Take `O=C(NCCn1nc(-c2ccccn2)c2c1CCCC2)c1cccnc1`: the “% Inhibition” value turned out to be 1% and the Z score is on record as -0.17.
On the same counts, the results for `Cc1c(C(=O)Nc2ccc(F)c(Cl)c2)sc2ncnc(N3CCc4ccccc4C3)c12` are 17% and -1.95.
For the molecule `COc1ccc(-c2nc(N3CCCCCC3)nc3nn4c(C)cc(C)nc4c23)cc1`, the “% Inhibition” value is given as -5% and the Z score was 0.63.
On the same counts, the results for `C=CCNC(=O)N1CCc2nc(N3CCC(C)CC3)nc(Oc3cccc(OC)c3)c2C1` are 2% and -0.33.
On the same counts, the results for `Cn1cc(NC(=O)NCC(C)(C)C2CCOCC2)c(C(F)(F)F)n1` are -10% and 1.61.
The like results for `Cc1cc(C)cc(C[C@H]2CC(=O)N(Cc3cc(C)on3)C2=O)c1` were, in that order, -10% and 1.75.
Regarding `CCC1CN(C(=O)c2sccc2F)C1`, the “% Inhibition” value is on record as -10% and the Z score came out at 1.62.
Consider `CN(c1ccccc1NC(=O)c1cn[nH]c1)C1CCCC1`, for which the “% Inhibition” value is -13% and the Z score is recorded as 2.53.
On the same counts, the results for `O=C(NCc1ccccn1)c1ccncc1` are 1% and -0.13.
On the same counts, the results for `CC(NS(=O)(=O)CC1CCCC1(F)F)c1ccn(C)n1` (centres undefined) are -3% and 0.53.
As to `O=C(CN1CCC(c2ncco2)CC1)Nc1ccc2c(c1)OCO2`, the “% Inhibition” value is listed as 2% and the Z score is given as -0.32.
The like results for `CCCc1nc(CNC(=O)c2cccn2C2CC2)cs1` were, in that order, -11% and 1.75.
The like results for `O=C1NC(C2(O)C(=O)Nc3ccccc32)C(=O)N1Cc1ccccc1` (centres undefined) were, in that order, 7% and -0.93.
On the same counts, the results for `O=C(N[C@@H]1CN(Cc2ccc(F)cc2F)C[C@H]1CO)c1cnccn1` are -8% and 1.37.
As to `CC(C)S(=O)(=O)Nc1cccc(O)c1`, the “% Inhibition” value is -2% and the Z score worked out at 0.23.
On the same counts, the results for `Cc1cc(CC(=O)N2CCC[C@H]2c2cccc(Br)c2)n[nH]1` are -2% and 0.3.
For `Cc1sc(CCNC(=O)c2ccc3nc4n(c3c2)CCC4)nc1-c1ccccc1`, the “% Inhibition” value was determined as 4% and the Z score is given as -0.69.

Values taken from ChEMBL document CHEMBL4888484, “Replenishing the malaria drug discovery pipeline: Screening and hit evaluation of the MMV Hit Generation Library 1 (HGL1) against asexual blood stage Plasmodium falciparum ,using a nano luciferase reporter read-out” (2022).
